A collection of fitness landscapes (doi:10.1126/science.1257360)
This is one part of the list.

B1: PhoQ; a variant is named by its letters at X, in order, P23837 (parent)
chain: MKKLLRLFFPLSLRVRFLLATAAVVLVLSLAYGMVALIGYSVSFDKTTFRLLRGESNLFYTLAKWENNKLHVELPENIDKQSPTMTLIYDENGQLLWAQRDVPWLMKMIQPDWLKSNGFHEIEADVNDTSLLLSGDHSIQQQLQEVREDDDDAEMTHSVAVNVYPATSRMPKLTIVVVDTIPVELKSSYMVWSWFIYVLSANLLLVIPLLWVAAWWSLRPIEALAKEVRELEEHNRELLNPATTRELTSLVRNLNRLLKSERERYDKYRTTLTDLTHSLKTPLXXLQXXLRSLRSEKMSVSDAEPVMLEQISRISQQIGYYLHRASMRGGTLLSRELHPVAPLLDNLTSALNKVYQRKGVNISLDISPEISFVGEQNDFVEVMGNVLDNACKYCLEFVEISARQTDEHLYIVVEDDGPGIPLSKREVIFDRGQRVDTLRPGQGVGLAVAREITEQYEGKIVAGESMLGGARMEVIFGRQHSAPKDE

Variants of: B1
Assay: enrichment ratio after two sorts for PhoP signalling (ratio (wild type AVST 3.29)); higher = more functional
Settings: with PhoP (E. coli)

Variant | enrichment ratio
GALG | 3.78
MDRN | ≤ 0.25
TACS | 14.1
HNTN | ≤ 0.25
VIYQ | ≤ 0.25
QGFA | 1.27
EFLW | ≤ 0.25
LFDG | ≤ 0.25
FMLD | ≤ 0.25
YLFD | ≤ 0.25
MVGR | ≤ 0.25
SERW | ≤ 0.25
FMYV | ≤ 0.25
EKWC | ≤ 0.25
HIWP | ≤ 0.25
PITP | ≤ 0.25
MYAA | ≤ 0.25
YSTV | 4.67
MIRR | ≤ 0.25
LVDV | ≤ 0.25
VERC | ≤ 0.25
HCPL | ≤ 0.25
WMRR | ≤ 0.25
PHRM | ≤ 0.25
FMWK | ≤ 0.25

Variant | enrichment ratio
RIIR | ≤ 0.25
KHLD | 2.17
GHHQ | ≤ 0.25
VNFV | ≤ 0.25
WGYM | ≤ 0.25
MEQD | ≤ 0.25
PEFD | ≤ 0.25
LELR | ≤ 0.25
DNIL | ≤ 0.25
FNSE | ≤ 0.25
RARH | ≤ 0.25
ERWI | ≤ 0.25
YGTA | ≤ 0.25
VYYN | ≤ 0.25
WEVR | ≤ 0.25
FCKC | ≤ 0.25
WVYC | ≤ 0.25
PFKA | ≤ 0.25
GFFV | ≤ 0.25
YGMW | ≤ 0.25
TWHH | ≤ 0.25
ALRC | ≤ 0.25
NFER | ≤ 0.25
EAAA | ≤ 0.25
LHMG | ≤ 0.25

Variant | enrichment ratio
ANCG | 26.6
VYLA | ≤ 0.25
IWLF | ≤ 0.25
LLMR | ≤ 0.25
FWIT | ≤ 0.25
ETPN | ≤ 0.25
ALTG | 3.18
GCDD | ≤ 0.25
FFPT | ≤ 0.25
SWKS | ≤ 0.25
LDPW | ≤ 0.25
FVIF | ≤ 0.25
TYFD | ≤ 0.25
DQHR | ≤ 0.25
GLAY | ≤ 0.25
ISSI | ≤ 0.25
GWSS | ≤ 0.25
IQCF | ≤ 0.25
EGMS | ≤ 0.25
DSWE | ≤ 0.25
FYHQ | ≤ 0.25
VVKH | ≤ 0.25
LEER | ≤ 0.25
LHDS | ≤ 0.25
ITMW | ≤ 0.25

Variant | enrichment ratio
MNAD | ≤ 0.25
MPWT | ≤ 0.25
PHDW | ≤ 0.25
SAFN | ≤ 0.25
NMDA | ≤ 0.25
SPWR | ≤ 0.25
SMSP | ≤ 0.25
KMFT | ≤ 0.25
MCIA | ≤ 0.25
DNAT | ≤ 0.25
MYKY | ≤ 0.25
MSMG | 2.86
DGTH | ≤ 0.25
FKNP | ≤ 0.25
GKVY | ≤ 0.25
TVFF | 1.69
KYKN | ≤ 0.25
TYYG | ≤ 0.25
FYHH | ≤ 0.25
SENS | 3.56
ARAN | ≤ 0.25
IHAD | ≤ 0.25
AKNL | ≤ 0.25
FRYW | ≤ 0.25
WVTC | ≤ 0.25

Variant | enrichment ratio
VERD | ≤ 0.25
PKHM | ≤ 0.25
DGCC | ≤ 0.25
DVVL | ≤ 0.25
GKQY | ≤ 0.25
TGDK | ≤ 0.25
MKFY | ≤ 0.25
KYTK | ≤ 0.25
AAGF | 0.706
IIDG | ≤ 0.25
MHNE | ≤ 0.25
QKIL | ≤ 0.25
FVVS | ≤ 0.25
MQPC | ≤ 0.25
NDGY | ≤ 0.25
DQDN | ≤ 0.25
YPGY | ≤ 0.25
SFFT | ≤ 0.25
RRNK | ≤ 0.25
YGRH | ≤ 0.25
MWLI | ≤ 0.25
PYTW | ≤ 0.25
PYVA | ≤ 0.25
DGPE | ≤ 0.25
VWQW | ≤ 0.25

Variant | enrichment ratio
LAAL | ≤ 0.25
AKFY | ≤ 0.25
MQGW | ≤ 0.25
VDAW | ≤ 0.25
FDKK | ≤ 0.25
FSLP | ≤ 0.25
RWKT | ≤ 0.25
AMPL | ≤ 0.25
IAPK | 10.1
PTAM | ≤ 0.25
GIPF | ≤ 0.25
QQIQ | ≤ 0.25
VKIA | ≤ 0.25
VSDR | ≤ 0.25
SYHT | ≤ 0.25
FMGK | ≤ 0.25
VNYW | ≤ 0.25
TCPY | ≤ 0.25
YYLD | ≤ 0.25
VSNM | ≤ 0.25
WLAS | ≤ 0.25
TMHL | 11.6
NYFL | ≤ 0.25
STNW | ≤ 0.25
IKRR | ≤ 0.25

Variant | enrichment ratio
FKRI | ≤ 0.25
PQEV | ≤ 0.25
DVFC | ≤ 0.25
MDPG | ≤ 0.25
TDEG | ≤ 0.25
YFHH | ≤ 0.25
FKRL | ≤ 0.25
KPFI | ≤ 0.25
HNIR | ≤ 0.25
REGM | ≤ 0.25
GFHS | ≤ 0.25
TLKK | ≤ 0.25
LPVF | ≤ 0.25
ALVG | 1.71
VHAM | ≤ 0.25
FNRA | ≤ 0.25
MQWP | ≤ 0.25
GFCP | ≤ 0.25
GPAF | ≤ 0.25
RWFN | ≤ 0.25
TSFS | 4.18
EIWL | ≤ 0.25
WAVY | ≤ 0.25
KDVY | ≤ 0.25
KSKA | ≤ 0.25

Variant | enrichment ratio
YVGH | ≤ 0.25
IVYE | ≤ 0.25
MCAP | ≤ 0.25
MEVG | 4.29
WMTK | ≤ 0.25
MNDK | ≤ 0.25
IFCE | ≤ 0.25
RWDA | ≤ 0.25
ISVS | ≤ 0.25
GFYC | ≤ 0.25
NPFN | ≤ 0.25
SAMF | 14.8
PTNN | ≤ 0.25
VIKK | ≤ 0.25
ILAI | ≤ 0.25
KMYI | ≤ 0.25
TVYM | 8.79
MVMW | ≤ 0.25
VEPP | ≤ 0.25
TRIH | ≤ 0.25
